Assay results as given in a collection of fitness landscapes (doi:10.1016/j.celrep.2020.107928).
The full ranking holds about 81,000 sequences; the median of “one-hybrid fitness for binding parS DNA” is about -0.17, and the highest 2% start at about 0.51. The list shows a part of the results.

B1: Caulobacter ParB omega fusion; a variant is named by its letters at X, in order, B8GW30 (parent)
chain: MESVVVGEPGMSEGRRGLGRGLSALLGEVDAAPAQAPGEQLGGSREAPIEILQRNPDQPRRTFREEDLEDLSNSIREKGVLQPILVRPSPDTAGEYQIVAGERAWRAAQRAGLKTVPIMVRELDDLAVLEIGIIENVQRADLNVLEEALSYKVLMEKFERTQENIAQTIGKSXSHVANXMRLLXLPDEVQSYLVSGELTAXHARAIAAAADPVALAKQIIEGGLSVRETEALARKAPNLSAGKSKGGRPPRVKDTDTQALESDLSSVLGLDVSIDHRGSTGTLTITYATLEQLDDLCNRLTRGI

Variants of: B1
Test: one-hybrid fitness for binding parS DNA (scaled: cognate 1, non-cognate 0); higher = stronger binding
Settings: with parS DNA site
Method in brief: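 Selection: bacterial one-hybrid in E. coli USO, HIS3 reporter with the site 19 bp from the promoter, 48 hours at 37°C on M9-minus-histidine plus 0.1 mM IPTG and 5 mM 3-AT. Libraries were Caulobacter ParB with four randomised specificity codons, sequenced on Illumina before and after selection. Fitness is the rescaled log change in variant-to-wild-type read ratio, anchored to the cognate and non-cognate sites.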

Variant	one-hybrid fitness for binding parS DNA
YIGT	≤ 0.2
RCIL	≤ 0.2
CYLA	≤ 0.2
GLIT	≤ 0.2
TILD	≤ 0.2
EVTV	≤ 0.2
PDNL	≤ 0.2
SAVA	≤ 0.2
QYKC	≤ 0.2
WACS	≤ 0.2
HHNI	≤ 0.2
VVGS	≤ 0.2
NEKR	≤ 0.2
LSKS	≤ 0.2
NAGM	≤ 0.2
KRLL	≤ 0.2
HSPW	≤ 0.2
SRVA	≤ 0.2
WFTG	≤ 0.2
KYFS	≤ 0.2
RMPE	≤ 0.2
PAHS	≤ 0.2
EPST	≤ 0.2
KYER	≤ 0.2

Variant	one-hybrid fitness for binding parS DNA
TSET	≤ 0.2
NQNP	≤ 0.2
GNSA	≤ 0.2
VGNS	≤ 0.2
PSAP	≤ 0.2
AHEG	≤ 0.2
GQMS	≤ 0.2
DITC	≤ 0.2
VWSV	≤ 0.2
NLNA	≤ 0.2
WEAR	≤ 0.2
NSIG	≤ 0.2
VEAR	≤ 0.2
TTDS	≤ 0.2
GLSI	≤ 0.2
KRWY	≤ 0.2
PGLL	≤ 0.2
LCER	≤ 0.2
PGQT	≤ 0.2
LQNL	≤ 0.2
HFEC	≤ 0.2
MDAR	≤ 0.2
SIMK	≤ 0.2
HHIF	≤ 0.2

Variant	one-hybrid fitness for binding parS DNA
DETT	≤ 0.2
KAPF	≤ 0.2
LNQL	≤ 0.2
QSRK	≤ 0.2
WAYT	≤ 0.2
TQIR	≤ 0.2
LPKV	≤ 0.2
GVSH	≤ 0.2
GGPR	≤ 0.2
QKAP	≤ 0.2
ALHA	≤ 0.2
MVMR	≤ 0.2
AMSV	≤ 0.2
ICRN	≤ 0.2
DVLR	≤ 0.2
RSNH	0.203
GQHT	≤ 0.2
MPFY	≤ 0.2
DESW	≤ 0.2
PFFT	≤ 0.2
MDHR	≤ 0.2
RMED	≤ 0.2
FNKT	≤ 0.2
NQAG	≤ 0.2

Variant	one-hybrid fitness for binding parS DNA
TAKA	≤ 0.2
RHLD	≤ 0.2
RWRA	0.474
GSAP	≤ 0.2
YIKR	≤ 0.2
RQHK	≤ 0.2
FCHW	≤ 0.2
VTHP	≤ 0.2
GCQP	≤ 0.2
QAKT	≤ 0.2
WHRL	≤ 0.2
CICG	≤ 0.2
KFLR	≤ 0.2
QPDH	≤ 0.2
GFSG	≤ 0.2
QRIV	≤ 0.2
KPMS	≤ 0.2
PCAW	≤ 0.2
QQCA	≤ 0.2
KPDM	≤ 0.2
VPKK	≤ 0.2
RCWA	0.68
RWNH	≤ 0.2
PTEG	≤ 0.2

Variant	one-hybrid fitness for binding parS DNA
QREC	≤ 0.2
HAKH	≤ 0.2
LHVV	≤ 0.2
KRKS	≤ 0.2
NTWW	≤ 0.2
LHVM	≤ 0.2
PQTA	≤ 0.2
QLFK	≤ 0.2
QYQL	≤ 0.2
MPLM	≤ 0.2
RTSN	0.422
HWDG	≤ 0.2
SHAV	≤ 0.2
HMWT	≤ 0.2
STPR	≤ 0.2
PRTN	≤ 0.2
FNKV	≤ 0.2
SCEG	≤ 0.2
PKVP	≤ 0.2
APLL	≤ 0.2
VYCS	≤ 0.2
ATQN	≤ 0.2
HIDQ	≤ 0.2
ALTQ	≤ 0.2

Variant	one-hybrid fitness for binding parS DNA
HNLC	≤ 0.2
LATD	≤ 0.2
PSCS	≤ 0.2
RSYV	≤ 0.2
PVMP	≤ 0.2
HAPA	≤ 0.2
DQTE	≤ 0.2
MLGC	≤ 0.2
PSQF	≤ 0.2
YLDG	≤ 0.2
SNER	≤ 0.2
TLTQ	≤ 0.2
TSFV	≤ 0.2
LKGC	≤ 0.2
QQGT	≤ 0.2
TTQR	≤ 0.2
CTGG	≤ 0.2
RCFY	0.443
VVMF	≤ 0.2
VHNW	≤ 0.2
EMCG	≤ 0.2
YVYP	≤ 0.2
GIAA	≤ 0.2
HWRG	≤ 0.2

Variant	one-hybrid fitness for binding parS DNA
FWNR	≤ 0.2
LTWC	≤ 0.2
PQCG	≤ 0.2
LAFY	≤ 0.2
RMYA	0.651
ATTD	≤ 0.2
PYGW	≤ 0.2
RLWH	0.3
SLVY	≤ 0.2
ISMV	≤ 0.2
MAIV	≤ 0.2
MHAP	≤ 0.2
QSIE	≤ 0.2
AAEE	≤ 0.2
PRQD	≤ 0.2
CAMS	≤ 0.2
YDGS	≤ 0.2
ADPG	≤ 0.2
MCTS	≤ 0.2
HCWY	≤ 0.2
GSLS	≤ 0.2
NAPH	≤ 0.2
KTTP	≤ 0.2
MASS	≤ 0.2

Variant	one-hybrid fitness for binding parS DNA
LKVA	≤ 0.2
PRDR	≤ 0.2
RNHF	≤ 0.2
TCSE	≤ 0.2
QCGS	≤ 0.2
RPNT	≤ 0.2
RWQF	≤ 0.2
PPDW	≤ 0.2
EALD	≤ 0.2
DYNG	≤ 0.2
YELA	≤ 0.2
KWSR	≤ 0.2
AFMD	≤ 0.2
CQSG	≤ 0.2
TSWF	≤ 0.2
GYAA	≤ 0.2
MCQV	≤ 0.2
RNAG	0.853
ACPP	≤ 0.2
SLTY	≤ 0.2
TLPV	≤ 0.2
GWDS	≤ 0.2
THRA	≤ 0.2
RQYG	0.994

Variant	one-hybrid fitness for binding parS DNA
SCHS	≤ 0.2
SCKL	≤ 0.2
EYQE	≤ 0.2
PDWS	≤ 0.2
EVNV	≤ 0.2
QPFI	≤ 0.2
PGPP	≤ 0.2
QQDF	≤ 0.2
AGTI	≤ 0.2
CKDG	≤ 0.2
VLVE	≤ 0.2
DTEF	≤ 0.2
SQDM	≤ 0.2
HAIN	≤ 0.2
VIAS	≤ 0.2
WPKT	≤ 0.2
WACV	≤ 0.2
SEWF	≤ 0.2
RMNV	≤ 0.2
RETC	≤ 0.2
SNNR	≤ 0.2
ARDI	≤ 0.2
GVLG	≤ 0.2
KYVP	0.208

Variant	one-hybrid fitness for binding parS DNA
ILEY	≤ 0.2
SVWV	≤ 0.2
IQRH	≤ 0.2
CWRI	≤ 0.2
HCYG	≤ 0.2
YTWG	≤ 0.2
CESG	≤ 0.2
GAWI	≤ 0.2
HYKT	≤ 0.2
SQNR	≤ 0.2
IDVC	≤ 0.2
APED	≤ 0.2
QKIF	≤ 0.2
IDPV	≤ 0.2
MVLR	≤ 0.2
FYYS	≤ 0.2
FALS	≤ 0.2
KRAQ	≤ 0.2
EGAT	≤ 0.2
EQML	≤ 0.2
VIYM	≤ 0.2
FYCS	≤ 0.2
HVTT	≤ 0.2
PATY	≤ 0.2

Variant	one-hybrid fitness for binding parS DNA
FHPC	≤ 0.2
QLDE	≤ 0.2
AVIF	≤ 0.2
FMSS	≤ 0.2
LHLV	≤ 0.2
RCFK	≤ 0.2
VSRQ	≤ 0.2
QMSW	≤ 0.2
AWEF	≤ 0.2
RNIC	0.523
TIRF	≤ 0.2
HNST	≤ 0.2
QCNL	≤ 0.2
AVFC	≤ 0.2
AIHF	≤ 0.2
TPDT	≤ 0.2
YSVA	≤ 0.2
RETY	≤ 0.2
RVTS	0.972
QRLR	≤ 0.2
RHGM	0.232
SVDR	≤ 0.2
VYNL	≤ 0.2
RSPR	≤ 0.2

Variant	one-hybrid fitness for binding parS DNA
WGSW	≤ 0.2
REIT	≤ 0.2
TYTT	≤ 0.2
IEHY	≤ 0.2
DTDF	≤ 0.2
NQHG	≤ 0.2
PESG	≤ 0.2
EECT	≤ 0.2
YRFL	≤ 0.2
SPEC	≤ 0.2
SYFR	≤ 0.2
RTTA	0.612
WVSC	≤ 0.2
CNRD	≤ 0.2
RHKE	≤ 0.2
RLMW	0.247
RFYM	0.265
SQWR	≤ 0.2
RSVC	0.775
CPRR	≤ 0.2
EAPL	≤ 0.2
GARD	≤ 0.2
NVTT	≤ 0.2
PRER	≤ 0.2

Variant	one-hybrid fitness for binding parS DNA
EVII	≤ 0.2
LFAP	≤ 0.2
GEST	≤ 0.2
QHHA	≤ 0.2
AIVQ	≤ 0.2
QDPY	≤ 0.2
HTAG	≤ 0.2
FVIV	≤ 0.2
TKHG	≤ 0.2
LCHC	≤ 0.2
AITR	≤ 0.2
RFAN	0.372
MLVG	≤ 0.2
CPTF	≤ 0.2
TRQC	≤ 0.2
RPDS	≤ 0.2
AIGG	≤ 0.2
MNRR	≤ 0.2
